{"source": "PubChem BioAssay AID1030", "about": "(National Center for Advancing Translational Sciences (NCATS), 2008)", "note": "Where “and” joins values, the source holds several entries; their conditions need not be identical. Identical values can stand only once. Screen size: about 220,000 compounds; about 16,000 (7.3%) were called active. The shares of active, inactive and inconclusive entries below differ from those in the screen. Calls come from the whole dose curve; as a rule, active = well fitted inhibition curve with a large enough effect (not every such curve was filed as active); inconclusive = small, poorly fitted or top-dose-only effect, or another doubt; inactive = no such curve, though single readings can be large or run the other way. Potencies of inconclusive entries are left out as doubtful fits. Potency is the fitted concentration of half-maximal effect; tags give direction and shape of the fitted curve."}
{"target": "Aldehyde dehydrogenase 1A1 (Homo sapiens) (UniProt P00352)", "sequence (P00352 whole entry, looked up)": "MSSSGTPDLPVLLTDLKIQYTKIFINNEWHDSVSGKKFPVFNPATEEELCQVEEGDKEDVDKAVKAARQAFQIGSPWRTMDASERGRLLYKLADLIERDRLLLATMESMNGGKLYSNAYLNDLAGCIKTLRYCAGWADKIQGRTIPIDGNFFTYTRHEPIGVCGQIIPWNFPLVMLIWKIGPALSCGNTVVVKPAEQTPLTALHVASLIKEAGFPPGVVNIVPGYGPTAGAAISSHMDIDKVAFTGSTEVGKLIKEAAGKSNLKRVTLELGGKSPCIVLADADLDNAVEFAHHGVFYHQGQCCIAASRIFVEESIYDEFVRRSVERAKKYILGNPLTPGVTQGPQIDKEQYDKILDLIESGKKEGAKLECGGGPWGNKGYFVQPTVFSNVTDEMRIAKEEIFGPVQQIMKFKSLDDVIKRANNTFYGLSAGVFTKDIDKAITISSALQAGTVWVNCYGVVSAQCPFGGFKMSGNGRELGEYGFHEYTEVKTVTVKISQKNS", "assay": "qHTS Assay for Inhibitors of Aldehyde Dehydrogenase 1 (ALDH1A1);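 for activity, negative = inhibition: plate controls were no enzyme wells and a reference inhibitor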", "details": "Purified ALDH1A1, NADH fluorescence, propionaldehyde substrate; series mostly up to 75.3 µM; activity, negative = inhibition: at the top concentration"}
{"smiles": "CC(NS(=O)(=O)/C=C/c1ccccc1)c1ccccc1", "note": "(configuration not stated)", "activity, negative = inhibition": "inactive: -4.18%"}
{"smiles": "CCOC(=O)c1c(-c2ccccc2Cl)cn2ccccc12", "Potency": "inconclusive [inhibitor, partial curve]"}
{"smiles": "CC(C)CC(=O)NC(=S)Nc1ccc(NC(=O)c2cccs2)cc1", "Potency": "inconclusive [inhibitor, single point]"}
{"smiles": "C[N+](C)(C)CC=O", "activity, negative = inhibition": "inactive: -7.42%"}
{"smiles": "O=C(COc1ccc(Cl)cc1Cl)NCCCCc1ccccc1", "Potency": "inconclusive [inhibitor, single point]"}
{"smiles": "COC(=O)/C=c1\\sc2ncnn2c1=O", "Potency": "inconclusive [inhibitor, single point]"}
{"smiles": "CO/N=C(/C)CCS(=O)(=O)c1ccccc1", "activity, negative = inhibition": "inactive: 1.68%"}
{"smiles": "C[C@@H](C(=O)NCc1ccc(S(C)(=O)=O)cc1)[C@H]1C[C@]1(C)[C@H](NC(=O)OCc1ccccc1)c1ccccc1", "Potency": "active: 5.62 µM and active: 6.31 µM"}
{"smiles": "C=CCOC(=O)N[C@@H](CC(C)C)/C(C(=O)OC)=C(\\C)NCc1ccccc1", "activity, negative = inhibition": "inactive: -3.6%"}
{"smiles": "CCOC(=O)C1=C(C)c2ccccc2OC1C(=O)OCC", "note": "(configuration not stated)", "activity, negative = inhibition": "inactive: -3.41%"}
{"smiles": "O=C(C1CCN(S(=O)(=O)N2CCC3(CC2)OCCO3)CC1)N1CCc2ccccc2C1", "Potency": "inconclusive [inhibitor, single point]"}
{"smiles": "O=C1CC(NNc2ccccc2)C(=O)N1c1cccc(Cl)c1", "note": "(configuration not stated)", "Potency": "inconclusive [inhibitor, single point]"}
{"smiles": "CC(C)(C)NC(=S)NCc1ccncc1", "activity, negative = inhibition": "inactive: 5.27%"}
{"smiles": "CCOC(=O)CSC1=NC(=O)/C(=C\\c2ccc(Cl)cc2)S1", "Potency": "active: 20 µM"}
{"smiles": "CCOC(=O)C1=NN(C(=O)Cc2ccccc2)C(O)(c2ccc(Cl)cc2)C1", "note": "(configuration not stated)", "Potency": "inconclusive [inhibitor, full curve, poor fit]"}
{"smiles": "O=C(CCCn1c(SCC(=O)c2ccc(Cl)cc2)nc2ccccc2c1=O)NCc1ccco1", "Potency": "inconclusive [inhibitor, single point]"}
{"smiles": "CCn1c(-c2sc(-c3ccccc3)nc2C)n[nH]c1=S", "activity, negative = inhibition": "inactive: -0.767%"}
{"smiles": "Cc1cccc(NC(=S)NNC(=O)c2ccc(Br)o2)c1", "Potency": "inconclusive [inhibitor, single point]"}
{"smiles": "C=CCSC1=N/C(=C\\c2ccc3c(c2)OCO3)C(=O)S1", "activity, negative = inhibition": "inactive: -9.43%"}
{"smiles": "O=C(Nc1cccnc1Cl)c1cc(-c2ccco2)on1", "Potency": "inconclusive [inhibitor, single point]"}
{"smiles": "CCN1C(=O)/C(=c2\\s/c(=C3\\Sc4ccccc4N3C)c(=O)n2C)N(C)C1=S", "Potency": "inconclusive [inhibitor, single point]"}
{"smiles": "Cc1cnc(NC(=O)c2sc3ccccc3c2Cl)s1", "Potency": "inconclusive [inhibitor, single point]"}
{"smiles": "COc1cc(C=O)c(Br)cc1OCC(=O)NCCc1ccccc1", "activity, negative = inhibition": "inactive: -5.83%"}
{"smiles": "NS(=O)(=O)c1cc2c(cc1Cl)N[C@H](Cc1ccccc1)NS2(=O)=O", "Potency": "inconclusive [inhibitor, single point]"}
{"smiles": "O=c1cc(-c2ccc(O)cc2O)oc2ccccc12", "activity, negative = inhibition": "inactive: 9.28%"}
{"smiles": "CCN(CC)c1ccc(/C=N/NC(=O)c2ccc(Br)o2)cc1", "Potency": "inconclusive [inhibitor, single point]"}
{"smiles": "CCOC(=O)/C(=N/Nc1ccccc1)Sc1nnnn1-c1ccc(C)cc1", "Potency": "active: 7.08 µM"}
{"smiles": "O=C1C2CCCCC2C(=O)N1c1cccc(OS(=O)(=O)c2ccccc2)c1", "note": "(configuration not stated)", "Potency": "inconclusive [inhibitor, single point]"}
{"smiles": "Cc1cc(C)c(C#N)c(SCc2nnc(-c3ccccc3)o2)n1", "activity, negative = inhibition": "inactive: 0.994%"}
{"smiles": "N#Cc1cccc(-c2cc(NCc3cccnc3)ncn2)c1", "Potency": "inconclusive [inhibitor, single point]"}
{"smiles": "O=C(Cc1ccccc1)Nc1cccc(C(=O)O)c1O", "Potency": "inconclusive [inhibitor, single point]"}
{"smiles": "COc1ccc(N=Nc2cc(C)c(O)c(CN3CCCCC3)c2)cc1", "activity, negative = inhibition": "inactive: -0.0524%"}
{"smiles": "COc1ccc(N2C(=O)/C(=C\\c3ccco3)N=C2SCC(=O)N(C(C)C)C(C)C)cc1Cl", "activity, negative = inhibition": "inactive: -1.33%"}
{"smiles": "Cc1cnc(C(=O)Nc2cccc3cccnc23)cn1", "Potency": "inconclusive [inhibitor, single point]"}
{"smiles": "COCCn1c(C)cc(C(=O)COC(=O)/C=C/c2cccc(OC)c2)c1C", "Potency": "inconclusive [inhibitor, partial curve]"}
{"smiles": "COc1ccc(C(=O)N/N=C/c2ccc(OC)c(CN3CCN(c4ccc(F)cc4)CC3)c2)cc1", "Potency": "inconclusive [inhibitor, single point]"}
{"smiles": "CN1C(=S)SC(N(O)C=C2C=CC(=O)C=C2)C1(C)C", "note": "(configuration not stated)", "activity, negative = inhibition": "inactive: -11.1%"}
